Laboratory results as given in publication PMC3199943, “Screening the MayBridge Rule of 3 Fragment Library for Compounds That Interact with the Trypanosoma brucei myo-Inositol-3-Phosphate Synthase and/or Show Trypanocidal Activity” (Molecular Biology International, 2011).
Structures can show the parent of a compound that is named as a salt. Where two headings read alike, the source gives them in different places.

System: cultured bloodstream T. brucei (strain 427)
Experiment: microbe, parasite or virus in culture
Details: Trypanosoma brucei
[1] = read-out: T. brucei Alamar Blue
[2] = read-out: T. brucei Alamar Blue (% survival)
[3] = read-out: T. brucei Alamar Blue, Supplementary Table 1, compound 0.5 mM, percentage of controls in the absence of compound, mean ± SD (n=3) or SE (n=2)
[4] = read-out: T. brucei Alamar Blue (% survival), compound 0.5 mM, percentage of controls

SMILES: COC(=O)c1ccc(N)c(C)c1 [compound 304, methyl 4‐amino‐3‐methylbenzoate]
- viability at 500 µM [1]: 87 ± 11.8%

SMILES: CC(C)(C)OC(=O)Nc1cccs1 [compound 620, tert-butyl N-(2-thienyl)carbamate]
- viability at 500 µM [1]: 40.1 ± 17.6%
- viability at 500 µM [2]: 40.1 ± 17.6%

SMILES: O=C(O)c1csc2ccccc12 [compound 432, 1‐benzothiophene‐3‐carboxylic acid]
- viability at 500 µM [1]: 83.1 ± 17.9%

SMILES: CC1OCCC1=O (centres unmarked) [compound 11, 2‐methyltetrahydrofuran‐3‐one]
- viability at 500 µM [1]: 97.8 ± 15.4%

SMILES: COc1ccc(CC#N)cc1 [compound 161, 2‐(4‐methoxyphenyl)acetonitrile]
- viability at 500 µM [3]: 101 ± 1.7%

SMILES: Cc1ccc(C(N)=O)cc1C [compound 177, 3,4‐dimethylbenzamide]
- viability at 500 µM [1]: 29.9 ± 7.7%

SMILES: Cn1cncc1C#N [compound 15, 1‐methyl‐1H‐imidazole‐5‐carbonitrile]
- viability at 500 µM [1]: 93.4 ± 4.5%

SMILES: O=C(O)c1cc2sccc2[nH]1 [compound 328, 4H-thieno[3,2-b]pyrrole-5-carboxylic acid]
- viability at 500 µM [4]: 51.6 ± 13.3%
- viability at 500 µM [3]: 51.6 ± 13.3%

SMILES: CSc1ccccc1CN [compound 217, 2‐(methylthio)benzylamine]
- viability at 500 µM [1]: 81.9 ± 10.4%

SMILES: O=C1CSC(c2cccs2)C1 (centres unmarked) [compound 482, 5‐(2‐thienyl)tetrahydrothiophen‐3‐one]
- viability at 500 µM [1]: 40.9 ± 5.9%

SMILES: Nc1cccc(-c2cccs2)c1 [compound 403, 3‐(2‐thienyl)aniline]
- viability at 500 µM [1]: 32 ± 5.9%

SMILES: CNCc1ccc(-c2nccs2)cc1 [compound 654, N‐methyl‐4‐(1,3‐thiazol‐2‐yl)benzylamine]
- viability at 500 µM [1]: 28.2 ± 6.4%

SMILES: OCc1ccc2ncccc2c1 [compound 255, 6‐quinolinylmethanol]
- viability at 500 µM [1]: 48.1 ± 12%

SMILES: FC(F)(F)c1nc2ccccc2[nH]1 [compound 499, 2‐(trifluoromethyl)‐1H‐benzo[d]imidazole]
- viability at 500 µM [1]: 70.1 ± 5.1%

SMILES: CC(=O)c1c(O)cccc1O [compound 204, 1-(2,6-dihydroxyphenyl)ethan-1-one]
- viability at 500 µM [1]: 45.2 ± 9.7%
- viability at 500 µM [2]: 45.2 ± 9.7%

SMILES: NC(=S)C1=Cc2ccccc2OC1 [compound 558, 2H‐chromene‐3‐carbothioamide]
- viability at 500 µM [1]: 41.2 ± 13.3%

SMILES: OCc1cccc2c1OCO2 [compound 203, 1,3‐benzodioxol‐4‐ylmethanol]
- viability at 500 µM [1]: 74.8 ± 13.4%

SMILES: N#Cc1cc(Cl)ccc1O [compound 218, 5‐chloro‐2‐hydroxybenzonitrile]
- viability at 500 µM [1]: 92.7 ± 13.6%

SMILES: Cc1ccc(C#N)c(N)c1 [compound 97, 2-amino-4-methylbenzonitrile]
- viability at 500 µM [1]: 72.2 ± 14.4%
- viability at 500 µM [2]: 72.2 ± 14.4%

SMILES: N#CCCNCc1ccco1 [compound 189, 3‐[(2‐furylmethyl)amino]propanenitrile]
- viability at 500 µM [1]: 81.5 ± 19.2%

SMILES: O=C(O)CSc1ccc(Cl)cc1 [compound 641, 2‐[(4‐chlorophenyl)thio]acetic acid]
- viability at 500 µM [1]: 129 ± 24.6%

SMILES: CCN(CC)CCc1ccccn1 [compound 443, N,N‐diethyl‐N‐[2‐(2‐pyridyl)ethyl]amine]
- viability at 500 µM [1]: 98.7 ± 8.7%

SMILES: Nc1ccc(CN2CCOCC2)cc1 [compound 567, 4‐(morpholinomethyl)aniline]
- viability at 500 µM [1]: 108.5 ± 0.2%

SMILES: CNCc1ccc(OC)cc1 [compound 199, N‐(4‐methoxybenzyl)‐N‐methylamine]
- viability at 500 µM [1]: 92.2 ± 16.8%

SMILES: NCCc1cccc2c1OCC2 [compound 293, 2,3‐Dihydrobenzo[b]furan‐7‐ethylamine]
- viability at 500 µM [1]: 31.2 ± 11.9%

SMILES: Cc1cc(C(=O)O)c(C(F)(F)F)o1 [compound 583, 5‐methyl‐2‐(trifluoromethyl)‐3‐furoic acid]
- viability at 500 µM [1]: 98.2 ± 11.7%

SMILES: COc1ccc(C#N)cn1 [compound 108, 6‐methoxynicotinonitrile]
- viability at 500 µM [1]: 108 ± 14.1%

SMILES: NCc1cccc(CN2CCCCC2)c1 [compound 655, 3‐piperidin‐1‐ylmethyl benzylamine]
- viability at 500 µM [1]: 59.2 ± 10.9%

SMILES: COC(=O)c1ccccc1F [compound 220, methyl 2‐fluorobenzoate]
- viability at 500 µM [1]: 108 ± 10.5%

SMILES: COC(=O)C1Cc2ccccc2N1 (centres unmarked) [compound 422, methyl 2‐indolinecarboxylate]
- viability at 500 µM [1]: 32.3 ± 8.4%

SMILES: OCc1ccc(-n2ccnc2)cc1 [compound 386, [4‐(1H‐imidazol‐1‐yl)phenyl]methanol]
- viability at 500 µM [1]: 87.6 ± 0.2%

SMILES: Cc1cc(Cl)ccc1C(=O)O [compound 350, 4‐chloro‐2‐methylbenzoic acid]
- viability at 500 µM [1]: 84.2 ± 12.3%

SMILES: OCc1ccnc(N2CCCC2)c1 [compound 438, (2‐pyrrolidin‐1‐ylpyrid‐4‐yl)methanol]
- viability at 500 µM [1]: 73.4 ± 14%

SMILES: NCCOc1ccccc1 [compound 122, 2‐phenoxyethylamine]
- viability at 500 µM [1]: 64.6 ± 8.2%

SMILES: N#Cc1ccc(O)cc1F [compound 120, 2‐fluoro‐4‐hydroxybenzonitrile]
- viability at 500 µM [1]: 39 ± 9.1%

SMILES: Nc1ccncc1 [compound 2, pyridin‐4‐amine]
- viability at 500 µM [1]: 98.8 ± 6.7%

SMILES: OCc1ccccc1-c1cccs1 [compound 543, (2‐thien‐2‐ylphenyl)methanol]
- viability at 500 µM [1]: 30.9 ± 1.2%

SMILES: Nc1ccc2ncsc2c1 [compound 191, 1,3‐benzothiazol‐6‐amine]
- viability at 500 µM [1]: 47.7 ± 13.8%

SMILES: NC(=O)NCc1ccc(F)cc1 [compound 334, N‐(4‐fluorobenzyl)urea]
- viability at 500 µM [1]: 92.1 ± 14%

SMILES: Nc1ccc(CO)cn1 [compound 66, (6‐amino‐3‐pyridinyl)methanol]
- viability at 500 µM [1]: 29.6 ± 6.1%

SMILES: O=C(O)C1CCCNC1 (centres unmarked) [compound 91, 3-piperidinecarboxylic acid]
- viability at 500 µM [4]: 36.1 ± 11%
- viability at 500 µM [3]: 36.1 ± 11%

SMILES: NC1CCN(Cc2ccccc2)CC1 [compound 548, 1‐benzylpiperidin‐4‐amine]
- viability at 500 µM [1]: 39.5 ± 10.8%

SMILES: N#Cc1cccc(-n2ccnc2)c1 [compound 339, 3‐(1H‐imidazol‐1‐yl)benzonitrile]
- viability at 500 µM [1]: 72.1 ± 7.8%

SMILES: OCc1nccs1 [compound 38, 1,3‐thiazol‐2‐ylmethanol]
- viability at 500 µM [1]: 87.9 ± 9%

SMILES: OCCc1ccc2c(c1)OCO2 [compound 321, 2‐(1,3‐benzodioxol‐5‐yl)ethanol]
- viability at 500 µM [1]: 35.2 ± 14.9%

SMILES: Oc1ccc2c(c1)OCO2 [compound 124, 1,3-benzodioxol-5-ol]
- viability at 500 µM [1]: 28.2 ± 7.1%
- viability at 500 µM [2]: 28.2 ± 7.1%

SMILES: Cc1ccsc1CN [compound 83, (3‐methyl‐2‐thienyl)methylamine]
- viability at 500 µM [1]: 95.7 ± 2.4%

SMILES: OC1CCSCC1 [compound 47, tetrahydro‐2H‐thiopyran‐4‐ol]
- viability at 500 µM [1]: 113 ± 7.5%

SMILES: N#Cc1cc(N)ccc1-n1cccc1 [compound 471, 5‐amino‐2‐(1H‐pyrrol‐1‐yl)benzonitrile]
- viability at 500 µM [1]: 42.4 ± 15.4%

SMILES: OCc1nccn1Cc1ccccc1 [compound 526, (1‐benzyl‐1H‐imidazol‐2‐yl)methanol]
- viability at 500 µM [1]: 84.5 ± 7.1%

SMILES: O=C(C1CCNCC1)N1CCCC1 [compound 469, 4‐piperidinyl(1‐pyrrolidinyl)methanone]
- viability at 500 µM [1]: 99.9 ± 7.5%

SMILES: NCc1ccc(F)cc1 [compound 71, 4‐fluorobenzylamine]
- viability at 500 µM [1]: 73.4 ± 16.8%

SMILES: Cc1oc(-c2ccccc2)cc1CO [compound 521, (2‐methyl‐5‐phenyl‐3‐furyl)methanol]
- viability at 500 µM [1]: 35 ± 3.8%

SMILES: c1cc(-c2ccncc2)ccn1 [compound 235, 4,4'‐dipyridyl]
- viability at 500 µM [1]: 95 ± 4.3%

SMILES: N#CC1(O)CN2CCC1CC2 (centres unmarked) [compound 208, 3‐hydroxyquinuclidine‐3‐carbonitrile]
- viability at 500 µM [1]: 102 ± 18%

SMILES: N#Cc1cc(-c2ccccc2)oc1N [compound 477, 2‐amino‐5‐phenyl‐3‐furonitrile]
- viability at 500 µM [1]: 93.4 ± 0.3%

SMILES: OCc1csc2ccc(Cl)cc12 [compound 608, (5‐chloro‐1‐benzothiophen‐3‐yl)methanol]
- viability at 500 µM [1]: 99 ± 26.1%

SMILES: O=C(O)c1ccc2ncccc2c1 [compound 370, quinoline‐6‐carboxylic acid]
- viability at 500 µM [1]: 107 ± 8.1%

SMILES: NCc1ccccc1-n1cccc1 [compound 363, [2‐(1H‐pyrrol‐1‐yl)phenyl]methylamine]
- viability at 500 µM [1]: 28.8 ± 7.9%

SMILES: O=C1CC(c2ccccc2)=NO1 [compound 272, 3-phenyl-4,5-dihydroisoxazol-5-one]
- viability at 500 µM [1]: 60.1 ± 21%
- viability at 500 µM [2]: 60.1 ± 21%

SMILES: Nc1cccc(-n2cccc2)c1 [compound 251, 3‐(1H‐pyrrol‐1‐yl)aniline]
- viability at 500 µM [1]: 29.2 ± 8.7%

SMILES: N#Cc1ccccc1-n1cccc1 [compound 336, 2‐(1H‐pyrrol‐1‐yl)benzonitrile]
- viability at 500 µM [1]: 33.1 ± 13%

SMILES: Nc1cc2ccccc2cn1 [compound 153, isoquinolin‐3‐amine]
- viability at 500 µM [1]: 44.8 ± 5%

SMILES: Cc1cc(O)cc(C)c1C#N [compound 164, 4‐hydroxy‐2,6‐dimethylbenzonitrile]
- viability at 500 µM [1]: 84.7 ± 2.4%

SMILES: Nc1ccccc1N1CCCC1 [compound 289, 2‐pyrrolidin‐1‐ylaniline]
- viability at 500 µM [1]: 20.1 ± 5.4%

SMILES: Cc1nn(C)c(C)c1N [compound 72, 1,3,5‐trimethyl‐1H‐pyrazol‐4‐amine]
- viability at 500 µM [1]: 20.8 ± 6.2%

SMILES: CSc1ccc(Cl)cc1N [compound 382, 5‐chloro‐2‐(methylthio)aniline]
- viability at 500 µM [1]: 105 ± 13.7%

SMILES: Oc1ccc(-n2ccnc2)cc1 [compound 266, 4‐(1H‐imidazol‐1‐yl)phenol]
- viability at 500 µM [1]: 81.3 ± 12.5%

SMILES: O=C(O)c1ccc(-c2cccnc2)cc1 [compound 612, 4‐pyrid‐3‐ylbenzoic acid]
- viability at 500 µM [3]: 40.1 ± 12.4%

SMILES: Cc1nc(-c2ccc(C#N)cc2)cs1 [compound 625, 4‐(2‐methyl‐1,3‐thiazol‐4‐yl)benzonitrile]
- viability at 500 µM [1]: 83.5 ± 5.3%

SMILES: O=C(O)Cc1cccnc1 [compound 381, pyridin‐3‐ylacetic acid hydrochloride]
- viability at 500 µM [1]: 111 ± 15.5%

SMILES: NCc1ccc(-n2cccn2)cc1 [compound 378, 4‐(1H‐pyrazol‐1‐yl)benzylamine]
- viability at 500 µM [1]: 46.3 ± 17.2%

SMILES: Cc1ccc2oc(=O)ccc2c1 [compound 265, 6‐methyl‐2H‐chromen‐2‐one]
- viability at 500 µM [1]: 91.1 ± 18.7%

SMILES: O=C(O)CCc1ccccc1O [compound 323, 3‐(2‐hydroxyphenyl)propanoic acid]
- viability at 500 µM [1]: 111 ± 8.6%

SMILES: CNCc1cccc(-c2cccnc2)c1 [compound 606, N‐methyl‐N‐(3‐pyridin‐3‐ylbenzyl)amine]
- viability at 500 µM [1]: 43.2 ± 12.9%

SMILES: c1ccc(-c2cc[nH]n2)cc1 [compound 150, 3‐phenyl‐1H‐pyrazole]
- viability at 500 µM [1]: 51.9 ± 12.6%
